Data: the supplement of paper PMC4967469

What was measured:
Assay in all cases: Viability of human cancer cell lines after 72 h of drug (GDSC screen)
Cyclopamine = compound: CC1=C2C[C@H]3[C@@H](CC=C4C[C@@H](O)CC[C@@]43C)[C@@H]2CC[C@]12O[C@@H]1C[C@H](C)CN[C@H]1[C@H]2C [Cyclopamine]; settings: top dose 16 µM; top dose inferred
Procedure: (§1)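 Human cancer cell lines in 384-well plates, medium with 10% serum, drug for 72 h over a 256-fold dose range (nine 2-fold or five 4-fold steps up to the top dose). Adherent lines were fixed and stained with the nucleic acid dye Syto60, suspension lines read with resazurin; signal relative to control wells, capped at 0 and 100%. One two-parameter sigmoid per drug and line, fitted in a mixed model over all curves with the slope shared within a line.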

FTI-277 = compound: COC(=O)[C@H](CCSC)NC(=O)c1ccc(NC[C@@H](N)CS)cc1-c1ccccc1 [FTI-277]; settings: top dose 1.024 µM; top dose inferred
Procedure: as §1

JNJ-26854165 = compound: c1ccc2c(CCNc3ccc(Nc4ccncc4)cc3)c[nH]c2c1 [JNJ-26854165]; settings: top dose 10 µM
Procedure: as §1

SB-715992 = compound: Cc1ccc(C(=O)N(CCCN)[C@@H](c2nc3cc(Cl)ccc3c(=O)n2Cc2ccccc2)C(C)C)cc1 [SB-715992]; settings: top dose 0.128 µM; top dose inferred
Procedure: as §1

Belinostat = compound: O=C(/C=C/c1cccc(S(=O)(=O)Nc2ccccc2)c1)NO [Belinostat]; settings: top dose 20 µM; top dose inferred
Procedure: as §1

JNK Inhibitor VIII = compound: CCOc1nc(NC(=O)Cc2cc(OC)ccc2OC)cc(N)c1C#N [JNK Inhibitor VIII]; settings: top dose 10 µM; top dose inferred
Procedure: as §1

Docetaxel = compound: CC(=O)O[C@@]12CO[C@@H]1C[C@H](O)[C@@]1(C)C(=O)[C@H](O)C3=C(C)[C@@H](OC(=O)[C@H](O)[C@@H](NC(=O)OC(C)(C)C)c4ccccc4)C[C@@](O)([C@@H](OC(=O)c4ccccc4)[C@H]21)C3(C)C [Docetaxel]; settings: top dose 0.0125 µM
Procedure: as §1

AMG-706 = compound: CC1(C)CNc2cc(NC(=O)c3cccnc3NCc3ccncc3)ccc21 [AMG-706]; settings: top dose 2 µM; top dose inferred
Procedure: as §1

CGP-60474 = compound: OCCCNc1cc(-c2ccnc(Nc3cccc(Cl)c3)n2)ccn1 [CGP-60474]; settings: top dose 0.256 µM; top dose inferred
Procedure: as §1

NSC-207895 = compound: CN1CCN(c2ccc([N+](=O)[O-])c3no[n+]([O-])c23)CC1 [NSC-207895]; settings: top dose 20 µM; top dose inferred
Procedure: as §1

NVP-TAE684 = compound: COc1cc(N2CCC(N3CCN(C)CC3)CC2)ccc1Nc1ncc(Cl)c(Nc2ccccc2S(=O)(=O)C(C)C)n1 [NVP-TAE684]; settings: top dose 2 µM
Procedure: as §1

OSI-906 = compound: C[C@]1(O)C[C@@H](c2nc(-c3ccc4ccc(-c5ccccc5)nc4c3)c3c(N)nccn32)C1 [OSI-906]; settings: top dose 2.56 µM; top dose inferred
Procedure: as §1

JQ1 = compound: Cc1sc2c(c1C)C(c1ccc(Cl)cc1)=N[C@@H](CC(=O)OC(C)(C)C)c1nnc(C)n1-2 [JQ1]
Procedure: as §1

YM155 = compound: COCC[n+]1c2c(n(Cc3cnccn3)c1C)C(=O)c1ccccc1C2=O [YM155]; settings: top dose 5.12 µM
Procedure: as §1

[1] = top dose 1 µM, screen: GDSC drug entry 1218, top dose inferred
[2] = top dose 2.56 µM, screen: GDSC drug entry 163

| Cell Line | AUC (Cyclopamine) | IC50 (Cyclopamine) [µM] | AUC (FTI-277) | IC50 (FTI-277) [µM] | AUC (JNJ-26854165) | IC50 (JNJ-26854165) [µM] | AUC (SB-715992) | IC50 (SB-715992) [µM] | AUC (Belinostat) | IC50 (Belinostat) [µM] | AUC (JNK Inhibitor VIII) | IC50 (JNK Inhibitor VIII) [µM] | AUC (Docetaxel) | IC50 (Docetaxel) [µM] | AUC (AMG-706) | IC50 (AMG-706) [µM] | AUC (CGP-60474) | IC50 (CGP-60474) [µM] | AUC (NSC-207895) | IC50 (NSC-207895) [µM] | AUC (NVP-TAE684) | IC50 (NVP-TAE684) [µM] | AUC (OSI-906) | IC50 (OSI-906) [µM] | AUC (JQ1; [1]) | IC50 (JQ1; [1]) [µM] | AUC (JQ1; [2]) | IC50 (JQ1; [2]) [µM] | AUC (YM155) | IC50 (YM155) [µM] |
| --- | --- | --- | --- | --- | --- | --- | --- | --- | --- | --- | --- | --- | --- | --- | --- | --- | --- | --- | --- | --- | --- | --- | --- | --- | --- | --- | --- | --- | --- | --- |
| DSH1 (bladder, adherent) | 0.989 | > 16 | 0.978 | > 1.02 | 0.72 | 2.54 | 0.983 | > 0.128 | 0.309 | 0.375 | 0.953 | > 10 | 0.878 | 0.0117 | 0.989 | > 2 | 0.855 | 0.191 | 0.94 | > 20 | 0.948 | > 2 | 0.989 | > 2.56 | 0.971 | > 1 | 0.629 | 0.357 | 0.075 | < 0.02 |
| NCI-H1838 (lung adenocarcinoma, adherent) | 0.987 | > 16 | 0.986 | > 1.02 | 0.876 | > 10 | 0.985 | > 0.128 | 0.884 | > 20 | 0.945 | > 10 | 0.977 | > 0.0125 | 0.98 | > 2 | 0.929 | > 0.256 | 0.986 | > 20 | 0.972 | > 2 | 0.982 | > 2.56 | 0.985 | > 1 | 0.986 | > 2.56 | 0.251 | 0.0518 |
| COLO-684 (endometrium, suspension) | 0.97 | > 16 | 0.976 | > 1.02 | 0.936 | > 10 | 0.824 | 0.0887 | 0.547 | 1.7 | 0.981 | > 10 | 0.929 | > 0.0125 | 0.965 | > 2 | 0.77 | 0.109 | 0.814 | 12.6 | 0.956 | > 2 | 0.981 | > 2.56 | 0.9 | > 1 | 0.825 | 1.79 | 0.043 | < 0.02 |
| A253 (head and neck, adherent) | 0.986 | > 16 | 0.987 | > 1.02 | 0.865 | 8.42 | 0.858 | 0.101 | 0.717 | 5.06 | 0.984 | > 10 | 0.811 | 0.00644 | 0.982 | > 2 | 0.728 | 0.0697 | 0.986 | > 20 | 0.972 | > 2 | 0.988 | > 2.56 | 0.988 | > 1 | 0.848 | 1.83 | 0.053 | < 0.02 |
| NCI-H510A (small cell lung carcinoma, semi-adherent) | 0.988 | > 16 | 0.987 | > 1.02 | 0.956 | > 10 | 0.915 | > 0.128 | 0.244 | 0.248 | 0.99 | > 10 | 0.909 | > 0.0125 | 0.99 | > 2 | 0.763 | 0.0852 | 0.733 | 5.39 | 0.81 | 0.949 | 0.985 | > 2.56 | – | – | 0.854 | 1.76 | 0.022 | < 0.02 |
| JM1 (B-cell lymphoma, suspension) | 0.978 | > 16 | 0.991 | > 1.02 | 0.932 | > 10 | 0.787 | 0.0472 | 0.078 | < 0.0781 | 0.975 | > 10 | 0.957 | > 0.0125 | 0.989 | > 2 | 0.705 | 0.0548 | 0.465 | 1.02 | 0.822 | 0.955 | 0.97 | > 2.56 | 0.983 | > 1 | 0.671 | 0.443 | 0.017 | < 0.02 |
| TE-8 (oesophagus, adherent) | 0.985 | > 16 | 0.975 | > 1.02 | 0.84 | 7.59 | 0.969 | > 0.128 | 0.985 | > 20 | 0.985 | > 10 | 0.446 | 0.000549 | 0.984 | > 2 | 0.586 | 0.0279 | 0.98 | > 20 | 0.702 | 0.483 | 0.808 | 1.44 | 0.97 | > 1 | 0.967 | > 2.56 | 0.881 | > 5.12 |
| TE-15 (oesophagus, suspension) | 0.985 | > 16 | 0.961 | > 1.02 | 0.927 | > 10 | 0.984 | > 0.128 | 0.362 | 0.491 | 0.979 | > 10 | 0.881 | > 0.0125 | 0.982 | > 2 | 0.604 | 0.0321 | 0.926 | > 20 | 0.742 | 0.684 | 0.892 | > 2.56 | 0.972 | > 1 | 0.617 | 0.351 | 0.118 | < 0.02 |

Lines with a small IC50 respond at low doses; where the fit passes the top or lowest dose, that dose stands as a limit. For AUC the same curve is integrated over the 256-fold range of doses and scaled to a fraction: 1 means no effect, lower means more sensitive. For some of these results: The top dose, if marked as inferred, was calculated from the reported fits. For some of these results: Drugs with an entry number were screened twice under separate entries, and the two screens often disagree.
